Experimental findings from US20140087362A1 (priority 2012, published 2014) are described below.

Data set [1] deals with GI-101A cells (unsorted, ALDH1+ sorted, ALDH1− sorted). Nature of the data set: MTT cell viability after 4-day treatment with chemotherapeutic agents. As to conditions: for viability at 0.1 µM / viability at 1 µM / viability at 10 µM / viability at 100 µM / viability at 1000 µM / viability at 0.01 µM: Homo sapiens, 96 h; for viability at 1000 µM: 1 mM.
Data set [2] relates to ALDH1. The data set is described as follows: ALDEFLUOR assay with or without DEAB. The format is cell-based, human. The settings on record: GI-101A cells. The method, then:
Aldehyde dehydrogenase (ALDH1) is a useful marker for isolating primitive stem cell populations including normal human mammary stem and progenitor cells as well as transformed tumor-initiating stem cells. In this example, GI-101A, MCF7, MDA-MB-231, Hs 578T, and SUM139PT breast cancer cell lines were tested for activity of the ALDH1 marker using a commercial assay to detect ALDH1 expression and thereby identify tumor stem cells (the ALDEFLUOR® assay (available from Stemcell™ Technologies, Vancouver BC, CA; see Ginestier et al. (2007) Cell Stem Cell 1(5):555-567)). […] The ALDH substrate fluoresces upon cleavage by ALDH.
ALDEFLUOR® assay fluorescence was excited at 488 nm and fluorescence emission was detected using a standard FITC 530/30 band pass filter. […]
To supplement the flow cytometric analysis, the presence of ALDH in GI-101A was assessed visually by fluorescence microscopy. […] Phase contrast and fluorescent images of the cells were taken using a fluorescence microscope, equipped with the appropriate filters and a digital camera, using a 100× objective.
First an ALDEFLUOR assay was performed on GI-101 cells in the presence or absence of DEAB inhibitor as described in Example 21. […] The cells were resuspended in 400 μL it staining buffer and kept on ice until analyzed by flow cytometry.

The test system of data set [3] is EMT-induced GI-101A cells. The data set is described as follows: Chemoresistance of EMT induced GI-101A cells, MTT. The settings on record: 4 days.
The mark [4] stands for this setting: read-out: Cell Viability (%) Following 4-Day Treatment, ALDH1+, 0.1 μM.
[5] abbreviates: read-out: Cell Viability (%) Following 4-Day Treatment, ALDH1+, 1 μM.
The mark [6] stands for this setting: read-out: Cell Viability (%) Following 4-Day Treatment, ALDH1+, 10 μM.
Where [7] appears, read: read-out: Cell Viability (%) Following 4-Day Treatment, ALDH1+.
The mark [8] stands for this setting: read-out: Cell Viability (%) Following 4-Day Treatment, ALDH1−, 0.1 μM.
[9] abbreviates: read-out: Cell Viability (%) Following 4-Day Treatment, ALDH1−, 1 μM.
Where [10] appears, read: read-out: Cell Viability (%) Following 4-Day Treatment, ALDH1−, 10 μM.
Setting [11] is: read-out: Cell Viability (%) Following 4-Day Treatment, ALDH1−.
Setting [12] is: read-out: Cell Viability (%) Following 4-Day Treatment, Unsorted, 0.1 μM.
The mark [13] stands for this setting: read-out: Cell Viability (%) Following 4-Day Treatment, Unsorted, 1 μM.
[14] abbreviates: read-out: Cell Viability (%) Following 4-Day Treatment, Unsorted.

Where two headings read alike, the source gives them in different places.

Regarding `O=c1[nH]cc(F)c(=O)[nH]1` [5-FU, 5-fluorouracil], the viability (as a rule, a read-out of living cells in per cent, often relative to untreated cells) at 0.1 µM in data set [1] (setting [4]) was 95%; in data set [1] (setting [8]) it was 60%; in data set [1] (setting [12]) it was 126%. Moreover, the figures for the viability at 1 µM in data set [1] (setting [5]), in data set [1] (setting [9]) and in data set [1] (setting [13]) were 90%, 37% and 67%, respectively. In addition, the viability at 10 µM was found to be 100% in data set [1] (setting [6]) and 62% in data set [1] (setting [10]). Further, the viability at 100 µM turned out to be 75% in data set [1] (read-out: Cell Viability (%) Following 4-Day Treatment, ALDH1+, 100 μM); 35% in data set [1] (read-out: Cell Viability (%) Following 4-Day Treatment, ALDH1−, 100 μM); 55% in data set [1] (read-out: Cell Viability (%) Following 4-Day Treatment, Unsorted, 100 μM). Also, the viability at 1000 µM in data set [1] (setting [7]), in data set [1] (setting [11]) and in data set [1] (setting [14]) was 5% throughout.

For `N.N.O=C([O-])C1(C(=O)[O-])CCC1.[Pt+2]` [Carboplatin, carboplatin], the “Cell Viability (%) Following 4-Day Treatment” value in data set [1] (ALDH1+, 0.1 μM) is 113%; in data set [1] (ALDH1+, 1 μM), 121%; in data set [1] (ALDH1+, 10 μM), 99%; in data set [1] (ALDH1+, 100 μM), 3%; in data set [1] (ALDH1−, 0.1 μM), 64%; in data set [1] (ALDH1−, 1 μM) it was 100%. Also, the “Cell Viability (%) Following 4-Day Treatment” value in data set [1] (ALDH1−, 10 μM) was 64%; in data set [1] (ALDH1−, 100 μM), 2%; in data set [1] (Unsorted, 0.1 μM) it was 92%; in data set [1] (Unsorted, 1 μM) it was 90%; in data set [1] (Unsorted, 10 μM) it was 93%; in data set [1] (Unsorted, 100 μM), 7%.

Regarding `CCN(CC)c1ccc(C=O)cc1` [DEAB], the “ALDH1 activity by fluorescence microscopy” value in data set [2] is “green fluorescence that was reduced”.

Take `CC[C@@H](C(=O)[C@@H](C)[C@@H](O)[C@H](C)[C@@H]1O[C@@H]([C@@H](CC)C(=O)O)CC[C@@H]1C)[C@H]1O[C@]2(C=C[C@@H](O)[C@]3(CC[C@@](C)([C@H]4CC[C@](O)(CC)[C@H](C)O4)O3)O2)[C@H](C)C[C@@H]1C` [Salinomycin, salinomycin]: in data set [3], the “chemo-resistance of EMT cells to the drug” value is reported as “did not exhibit chemo-resistant ability”. In addition, the viability at 0.01 µM in data set [1] (setting [7]) came to 54%; in data set [1] (setting [11]), 23%; in data set [1] (setting [14]), 36%. Moreover, the viability at 0.1 µM in data set [1] (setting [4]) is 55%; in data set [1] (setting [8]), 18%; in data set [1] (setting [12]) it was 41%. For the same compound, the viability at 1 µM in data set [1] (setting [5]) was 66%; in data set [1] (setting [9]) it was 42%; in data set [1] (setting [13]), 66%. In addition, the viability at 10 µM came out at 0% in data set [1] (setting [6]); 0% in data set [1] (setting [10]); 0% in data set [1] (read-out: Cell Viability (%) Following 4-Day Treatment, Unsorted, 10 μM).
